According to PMC5253658:
These are yes or no findings as the source states them, for the method shown. Binding seen in cells or lysates may run through a third protein. Some results given as binding are weak or reduced against the parent protein; the word gives no strength.

By UniProt entry, the sequences of proteins in these tests, tags left out. Residues count along the entry.
UniProt Q9QUK6, residues 26-835: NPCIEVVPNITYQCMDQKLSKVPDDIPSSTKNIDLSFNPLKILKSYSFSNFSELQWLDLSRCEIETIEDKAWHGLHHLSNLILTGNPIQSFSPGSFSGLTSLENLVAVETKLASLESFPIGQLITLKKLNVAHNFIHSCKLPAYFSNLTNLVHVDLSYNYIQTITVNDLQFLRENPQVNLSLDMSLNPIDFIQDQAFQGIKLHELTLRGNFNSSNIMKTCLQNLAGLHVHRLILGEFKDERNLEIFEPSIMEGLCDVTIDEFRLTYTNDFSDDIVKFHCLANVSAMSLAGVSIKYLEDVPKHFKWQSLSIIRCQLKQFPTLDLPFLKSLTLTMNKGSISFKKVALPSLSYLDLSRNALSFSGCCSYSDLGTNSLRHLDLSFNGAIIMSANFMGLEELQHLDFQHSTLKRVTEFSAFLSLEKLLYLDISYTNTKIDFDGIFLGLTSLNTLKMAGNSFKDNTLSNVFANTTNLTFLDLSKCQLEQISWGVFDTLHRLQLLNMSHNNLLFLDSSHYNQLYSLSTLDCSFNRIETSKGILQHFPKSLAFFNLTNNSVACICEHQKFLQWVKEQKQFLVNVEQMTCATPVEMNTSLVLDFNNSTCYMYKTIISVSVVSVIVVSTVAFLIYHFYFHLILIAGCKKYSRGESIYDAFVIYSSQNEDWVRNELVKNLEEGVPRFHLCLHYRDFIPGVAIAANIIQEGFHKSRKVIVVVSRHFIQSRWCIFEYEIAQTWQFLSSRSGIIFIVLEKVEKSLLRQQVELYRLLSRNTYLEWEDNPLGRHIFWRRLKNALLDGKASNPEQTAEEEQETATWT
UniProt P25911: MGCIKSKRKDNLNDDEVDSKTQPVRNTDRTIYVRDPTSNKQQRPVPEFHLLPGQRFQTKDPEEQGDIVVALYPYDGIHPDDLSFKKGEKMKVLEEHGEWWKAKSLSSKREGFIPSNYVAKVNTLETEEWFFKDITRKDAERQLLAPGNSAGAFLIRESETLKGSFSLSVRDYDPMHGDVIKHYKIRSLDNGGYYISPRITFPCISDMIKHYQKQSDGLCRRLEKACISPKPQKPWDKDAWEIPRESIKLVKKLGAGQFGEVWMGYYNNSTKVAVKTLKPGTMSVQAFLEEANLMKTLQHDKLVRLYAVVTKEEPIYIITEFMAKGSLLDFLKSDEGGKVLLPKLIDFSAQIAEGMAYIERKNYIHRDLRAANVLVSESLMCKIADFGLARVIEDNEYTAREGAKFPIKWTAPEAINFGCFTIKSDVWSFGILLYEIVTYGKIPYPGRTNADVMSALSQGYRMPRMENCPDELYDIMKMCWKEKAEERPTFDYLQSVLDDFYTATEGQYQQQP

How the values were obtained:
[1] = target: endogenous SCIMP of mouse macrophages (mouse (endogenous in RAW264.7 and BMM)) (UniProt Q3UU41); test: co-IP; as a9, BMM from Lyn^−/− mice stimulated with LPS for 5 min
[2] = target: V5-tagged full-length mouse SCIMP, stably expressed in RAW264.7 (mouse) (UniProt Q3UU41); test: co-IP; LPS-activated cells; details only in Supplementary Fig. 5d, not shown
[3] = target: GST-SCIMP-T1 (entire intracellular region of murine SCIMP, amino acids 29-150) (mouse) (UniProt Q3UU41); test: condition: only extracts of unstimulated macrophages; pull-down; as a5, extracts of unstimulated (control) macrophages; only the target purified
[4] = target: GST-SCIMP-T2 (C terminal region of murine SCIMP, amino acids 93-150) (mouse) (UniProt Q3UU41); test: as above
[5] = target: V5-tagged full-length mouse SCIMP, stably expressed in RAW264.7 (mouse) (UniProt Q3UU41); test: co-IP; RAW264.7 stably expressing V5-SCIMP (wild type or Y96F), treated with LPS for the indicated times; immunoprecipitation with V5 antibody, immunoblot; Lyn and Grb2 bound with and without LPS
[6] = target: full-length mouse SCIMP Y96F, stably expressed in RAW264.7 (mouse) (UniProt Q3UU41); test: as above
[7] = target: endogenous SCIMP of mouse macrophages (mouse (endogenous in RAW264.7 and BMM)) (UniProt Q3UU41); test: co-IP; immunoprecipitation of endogenous SCIMP from lysates of RAW264.7 cells (with or without SU6656) or wild-type BMM stimulated with LPS for 5 min; immunoblot for TLR4; also MyD88-deficient cells
[8] = target: GST-SCIMP-T1 (entire intracellular region of murine SCIMP, amino acids 29-150) (mouse) (UniProt Q3UU41); test: pull-down; GST-SCIMP Sepharose beads with lysates of LPS-activated (30 min) RAW264.7 macrophages, 1 h at 4 °C; 20 mM Tris pH 7.4, 150 mM NaCl, 1% NP-40; immunoblot for TLR4 and Lyn; Lyn also tested in extracts of unstimulated cells; only the target purified
[9] = target: GST-SCIMP-T1 Y120F (mouse) (UniProt Q3UU41); test: as above
[10] = target: GST-SCIMP-T1 Y58F (mouse) (UniProt Q3UU41); test: as above
[11] = target: GST-SCIMP-T2 (C terminal region of murine SCIMP, amino acids 93-150) (mouse) (UniProt Q3UU41); test: as above
[12] = target: GST-SCIMP-T1 Y96F (mouse) (UniProt Q3UU41); test: as above

Row | Substance | binding [1] | binding [2] | binding [3] | binding [4] | binding [5] | binding [6] | binding [7] | binding [8] | binding [9] | binding [10] | binding [11] | binding [12]
1 | endogenous TLR4 of mouse macrophages (from UniProt Q9QUK6 26-835) (receptor) | no binding (condition: BMM from Lyn^−/− mice) | binds | no binding | no binding | binds | no binding | binds | binds | binds | binds | binds | –
2 | Grb2 adaptor protein, endogenous in mouse macrophages (from UniProt Q60631 1-217) | – | – | – | – | binds | – | – | – | – | – | – | –
3 | Lyn tyrosine kinase, endogenous in mouse macrophages (from UniProt P25911 1-512) (enzyme) | – | – | – | – | binds | – | – | binds | binds | binds | no binding | binds
